Data reported in PMC4336329 (PLoS ONE, 2015).
Out of some 310,000 compounds screened, about 2,200 (0.71%) showed an effect of 50% or more. Effects have a minus sign here. The list shows a part of the results.

Molecular target: human ether-à-go-go-related gene (hERG) potassium channel (human, UniProt Q12809)
Experiment: primary screen, population patch clamp on CHO cells stably expressing hERG

human ether-à-go-go-related gene (hERG) potassium channel, sequence (Q12809 whole entry, looked up): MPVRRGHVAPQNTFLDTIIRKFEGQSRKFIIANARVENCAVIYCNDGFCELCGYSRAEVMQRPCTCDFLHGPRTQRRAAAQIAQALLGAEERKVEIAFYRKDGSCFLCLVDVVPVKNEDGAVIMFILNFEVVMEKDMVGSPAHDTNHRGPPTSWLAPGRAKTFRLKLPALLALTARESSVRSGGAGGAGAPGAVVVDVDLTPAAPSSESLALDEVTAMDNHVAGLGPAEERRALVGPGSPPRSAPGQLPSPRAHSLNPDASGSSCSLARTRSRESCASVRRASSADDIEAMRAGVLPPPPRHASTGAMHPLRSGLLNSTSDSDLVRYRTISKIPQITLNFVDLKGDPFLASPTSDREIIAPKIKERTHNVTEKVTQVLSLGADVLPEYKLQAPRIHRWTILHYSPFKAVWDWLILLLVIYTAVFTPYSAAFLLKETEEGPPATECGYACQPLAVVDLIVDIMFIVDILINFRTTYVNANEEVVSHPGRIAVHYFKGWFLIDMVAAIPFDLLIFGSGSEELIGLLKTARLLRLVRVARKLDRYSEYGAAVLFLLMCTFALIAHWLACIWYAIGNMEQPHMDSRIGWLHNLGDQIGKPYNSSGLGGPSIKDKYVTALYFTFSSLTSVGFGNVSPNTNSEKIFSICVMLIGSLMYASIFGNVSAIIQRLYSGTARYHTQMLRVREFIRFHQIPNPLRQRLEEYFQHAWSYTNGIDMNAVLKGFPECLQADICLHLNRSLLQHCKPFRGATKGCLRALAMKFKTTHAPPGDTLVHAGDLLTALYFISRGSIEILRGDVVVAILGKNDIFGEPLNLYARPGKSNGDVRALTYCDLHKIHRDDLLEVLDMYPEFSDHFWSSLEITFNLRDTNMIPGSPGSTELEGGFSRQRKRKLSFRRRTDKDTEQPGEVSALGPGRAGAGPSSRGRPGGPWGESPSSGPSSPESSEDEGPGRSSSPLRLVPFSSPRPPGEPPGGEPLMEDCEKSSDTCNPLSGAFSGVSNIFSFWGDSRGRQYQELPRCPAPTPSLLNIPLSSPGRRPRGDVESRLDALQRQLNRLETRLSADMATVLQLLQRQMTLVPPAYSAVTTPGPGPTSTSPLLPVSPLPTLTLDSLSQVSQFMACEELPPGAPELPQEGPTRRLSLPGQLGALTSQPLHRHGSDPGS

Structure (SMILES)	hERG current change (%, negative = inhibition) at 1uM
Cn1c(Cc2ccccc2)nnc1SCC(=O)NC1CCCC1	4.17%
CCOc1ccc(CN2C(=O)c3ccccc3C2=O)cc1C(=O)O	9.13%
COc1ccccc1CN1CCNC(=O)C1CC(=O)NCCCN1CCCC1=O (stereo not shown)	-3.3%
C#CCn1c(=NC(=O)CN2C(=O)CCC2=O)sc2cccc(C)c21	-0.337%
Cc1c(NC(=O)c2cccc(NC(=O)Cc3ccc(Cl)cc3)c2)c(=O)n(-c2ccccc2)n1C	4.75%
CCC1NC(=S)NC(C)=C1C(=O)c1ccccc1 (stereo not shown)	3.52%
COc1ccccc1CCC(=O)N1CCN(S(=O)(=O)c2cc(C(F)(F)F)ccc2Cl)CC1	10%
CC(/C=C/c1ccccc1)=N/NC(=O)c1cc([N+](=O)[O-])cc([N+](=O)[O-])c1	11.6%
CCN1CCN(Cc2ccc(NC(=O)Nc3ccc(SC)cc3)cc2)CC1	-8.4%
CN(C)CCCNc1ccc(-c2nn(C)c(=O)c3ccccc23)cc1[N+](=O)[O-]	12.4%
Cc1ccc(-c2nc(C)sc2CC(=O)OCC(=O)Nc2c(F)cccc2F)cc1	4.8%
O=C(Nc1ccc(F)cc1F)NC1CC1	12.9%
COc1ccc(-c2nc3cnccn3c2Nc2ccc3c(c2)OCO3)cc1	-0.161%
CCOC(=O)Nc1sc2c(c1C#N)CCCC2	10.6%
Cc1cc(C)c2nc(N(CCN(C)C)C(=O)/C=C/c3cccs3)sc2c1.Cl	11.7%
O=C(Nc1ccncc1)c1ccc(Br)cc1	11.4%
Cc1cccc(-n2cnc3cc([N+](=O)[O-])ccc32)c1	-4.78%
CCN(CC)S(=O)(=O)c1ccc(NCCc2ccccn2)nc1	16.7%
COC(=O)CN(c1ccc2c(c1)OCCO2)S(=O)(=O)c1ccccc1	4.64%
CC(C)C(=O)Nc1nnc(S(=O)(=O)N2CCCc3ccccc32)s1	9.79%
CCCCn1nnnc1SCC(=O)N(CC)CC	16.8%
CCOC(=O)c1c(NC(=O)CSc2nnc(-c3cccnc3)n2Cc2ccco2)sc(C)c1C	8.07%

Structure (SMILES)	hERG current change (%, negative = inhibition) at 1uM
COc1ccc(CCNc2nc(-c3sc(N)nc3C)cs2)cc1OC	12.1%
Fc1ccccc1Cc1noc(CN2CCN(c3ccc(Cl)cn3)CC2)n1	-5.24%
NC(=O)NCCC1=CCCCC1	15.3%
Cc1nn(CC#N)c(=O)n1-c1cccc(F)c1	13%
Cc1ccc(S(=O)(=O)N2CCN(C(=O)CSC3CCCC3)CC2)c(C)c1	9.54%
Cc1cccc(-n2c(C)nc3cc(C(=O)N4CCC5(CC4)OCCO5)ccc32)c1	-14.2%
Cc1cc(NC(=O)CCC(=O)N(Cc2ccco2)C2(C(=O)NC3CCCC3)CCCCC2)no1	10.5%
O=C(COC(=O)c1ccc([N+](=O)[O-])s1)Nc1cccc(S(=O)(=O)NC2=NCCCCC2)c1	7.6%
Cc1ccc2oc(-c3cccc(NC(=O)/C=C/c4cccc([N+](=O)[O-])c4)c3C)nc2c1	3.63%
O=C(O)C1Cc2ccccc2CN1S(=O)(=O)c1ccc(Cl)cc1 (stereo not shown)	6.87%
Cc1ccc(C)c(N2CCN(S(=O)(=O)c3ccc(-c4cc(C)no4)s3)CC2)c1	18.3%
O=C(NC1CCCCC1)C(c1ccncc1)N(C(=O)c1csnn1)c1ccccc1 (stereo not shown)	9.07%
CCCN1CCC(NC(=S)Nc2ccc(S(N)(=O)=O)cc2)CC1	12.5%
COc1ccc(C(C2C(=O)CC(C)(C)CC2=O)C2C(=O)CC(C)(C)CC2=O)cc1CO	9.55%
O=C(CNS(=O)(=O)c1cccs1)N1CCN(c2ccccn2)CC1	4.54%
CCCCn1c(O)c(C(C)=NCCc2ccccc2)c(=O)[nH]c1=O	7.03%
CCN(CC)S(=O)(=O)c1ccc(OC)c(NC(=O)C2CC(=O)N(c3ccc(C)cc3)C2)c1 (stereo not shown)	-5.45%
CN(C)CC/C=C1/c2cc(F)ccc2CSc2ccc(F)cc21	-2.43%
Cc1ccc(NC(=O)COC(=O)CCc2c[nH]c3ccccc23)cc1[N+](=O)[O-]	0.229%
CCOc1ccc(C(=O)NC(=S)NC2CCCC2)cc1[N+](=O)[O-]	14.2%
CCN(CC)CC(=O)Nc1cc(N(C)C)nc2ccccc12.O=C(O)C(=O)O	6.57%
CCCC(C)NC1=NCCCCC1 (stereo not shown)	2.11%

Structure (SMILES)	hERG current change (%, negative = inhibition) at 1uM
N=C1/C(=C/c2ccc(Br)o2)C(=O)N=C2SC(CC(=O)N3CCCC3)=NN12	12.1%
COC(=O)c1c(NC(=O)C2C3C=CC(CC3)C2C(=O)O)sc(C)c1C (stereo not shown)	4.01%
CCN1CCN(c2cc(N3CCCC3)c([N+](=O)[O-])cc2F)CC1	1.15%
O=C(NCCS(=O)(=O)N1CCCCC1)c1ccc2c(c1)OCO2	-1.82%
CCNC(=O)c1ccc(CSc2nc3ccccc3s2)cc1	11.4%
CCCn1c(-c2ccccc2)cc(SC)c(C#N)c1=O	8.36%
CC(C)=CCc1c(O)c(CC=C(C)C)c2occ(-c3ccc(O)cc3)c(=O)c2c1O	-2.28%
COc1ccc(CCNS(=O)(=O)c2ccc3c(c2)OCCO3)cc1	5.36%
COc1ccc(CNC(=O)CCC(=O)N2CCN(C(C)=O)CC2)cc1	9.58%
O=C(c1cccs1)N1CCC(Cc2ccccc2)CC1	3.05%
CCc1ccc2c(c1)C1(SC(NC(C)=O)=NN1C(C)=O)C(=O)N2CC (stereo not shown)	9.82%
COC(=O)c1ccc(Cn2nnc3c(=O)[nH]c(C4CCN(S(=O)(=O)c5cc(C)ccc5C)CC4)nc32)cc1	11.5%
COc1ccc(C(C)(C)C)cc1NC(=O)CNc1cccc2ccccc12	5.71%
O=C(COC(=O)c1ccc(Br)c(S(=O)(=O)N2CCOCC2)c1)NCC1CCCO1 (stereo not shown)	1.85%
Cc1cccc(Oc2nc(-c3ccncc3)nc3ccccc23)c1	8.12%
O=C(Cn1cnc2c(nnn2Cc2ccccc2)c1=O)Nc1ccc2c(c1)OCCO2	-7.45%
C=CCc1cc(OC)ccc1OCCN1CC(C)OC(C)C1.O=C(O)C(=O)O (stereo not shown)	8.68%
CCOC(=O)N1CCN(CCC(=O)c2ccc(Br)cc2)CC1.Cl	-23.1%
O=C(Nc1ccc(-c2ccc3nncn3n2)cc1)C1CCCCC1	3.48%
O=C(c1cccc(C(=O)N2CCc3ccccc32)n1)N1CCc2ccccc21	5.93%
Cc1cc(C)nc(/N=C2\NC(=O)CC(C(=O)O)N2c2cccc(Cl)c2)n1 (stereo not shown)	13.4%
Cc1ccc(N2C(=O)C3CCCN3C2=S)cc1Cl (stereo not shown)	3.78%

Structure (SMILES)	hERG current change (%, negative = inhibition) at 1uM
CC1(C)C2CCC1(C)C(NC1=NCCC1)C2.Cl (stereo not shown)	-2.04%
Cc1noc(C)c1S(=O)(=O)N1CCC(C(=O)NCCCN2CC(C)CC(C)C2)CC1 (stereo not shown)	12.2%
CCN(c1ccc(OC)cc1)S(=O)(=O)c1nnc(NC(=O)c2ccc(C)cc2)s1	8.32%
Cc1ccc(C(=O)N/C(=C\c2ccco2)C(=O)NCc2cccnc2)cc1	-36.2%
CCOc1ccc(N(CC(=O)Nc2ccc(CC)cc2)S(=O)(=O)c2c(C)[nH]c(=O)[nH]c2=O)cc1	12.6%
COc1cc(CNC2CCCCC2OC)cc(OC)c1.O=C(O)C(=O)O (stereo not shown)	10.6%
CN(C(=O)COC(=O)c1cccc(F)c1)c1ccccc1	12%
O=C(O)CCn1c(=O)n(CCC(=O)O)c(=O)n(CCC(=O)O)c1=O	14.3%
CC(c1ccco1)N(C(=O)c1ccc(S(=O)(=O)N2CCCCC2)cc1)c1ccccn1 (stereo not shown)	11.6%
CC(CC(=O)Nc1ccc(-c2ccno2)cc1)n1cccn1 (stereo not shown)	-2.93%
Cc1c(Br)c([N+](=O)[O-])nn1CC(=O)NCCc1ccc(Cl)cc1	-1.75%
Cc1sc2nc(SCC(N)=O)n(C)c(=O)c2c1C	13.9%
CCCCn1c(N)c(N(CC(C)C)C(=O)CCCc2nc3ccccc3c(=O)[nH]2)c(=O)[nH]c1=O	15.4%
Cc1cccnc1NC(=O)CN1C(=O)c2ccccc2S1(=O)=O	13%
O=[N+]([O-])/C=C1/NCCN1Cc1ccc(Cl)nc1	7.91%
COc1ccc(Cl)cc1C(=O)Nn1c(C)nc2ccccc2c1=O	15.8%
Cc1ccsc1/C=C1\SC(N2CC(C)OC(C)C2)=NC1=O (stereo not shown)	10.4%
C=CCNC(=S)N1CCC(C(=O)c2ccc(Cl)cc2)CC1	1.47%
Cc1cc(C)cc(C(=O)Nc2ccc(N3CCN(C(=O)c4ccco4)CC3)cc2)c1	13%
CC(CNC(=O)C(C)C)NC(=O)C(C)C (stereo not shown)	11.5%
Cc1c(C(=O)N2CCCCCC2)c(S(=O)(=O)Nc2ccc(F)cc2)c(C)n1C	11.6%
COc1ccc(C(C(=O)NC2CCCC2)N(Cc2cccnc2)C(=O)c2snc(C(N)=O)c2N)cc1 (stereo not shown)	10.9%
